Experimental data from publication PMC12136788.
Some of the results follow.

T1: UNK ZnF1-6 (called full-length) (human, UniProt Q9C0B0 30-357)
T1 sequence: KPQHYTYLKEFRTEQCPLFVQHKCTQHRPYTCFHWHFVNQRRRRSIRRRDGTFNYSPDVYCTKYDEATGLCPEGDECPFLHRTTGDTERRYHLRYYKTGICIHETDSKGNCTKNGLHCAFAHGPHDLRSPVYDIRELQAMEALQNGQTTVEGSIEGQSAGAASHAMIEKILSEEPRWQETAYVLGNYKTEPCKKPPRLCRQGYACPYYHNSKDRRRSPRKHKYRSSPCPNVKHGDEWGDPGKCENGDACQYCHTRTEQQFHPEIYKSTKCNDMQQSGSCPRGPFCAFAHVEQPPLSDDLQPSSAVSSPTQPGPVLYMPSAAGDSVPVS

B1: ENSG00000109180:stop:overlap|stop_codon|ENSG00000109180|stop_codon|NA|stop_codon (ssRNA)
RNA: GGGAGUUCUACAGUCCGACGAUCCAACAGAGGAAGAAAGGAGAGUCUUCGCAGAAUGCAAUGAUGAAAGCUUCUGGUUCAGAUAGAUGGGGUUUCACCGUGUUAACCAGGAUGGUCUCCAUCUCCUGACCUUGUGAUCCACCUCAACAGAGGAUUGAGCAUCA
B2: chr1:231019617:231019718:-|3pUTR|ENSG00000182118|msi1|FALSE|unique (ssRNA)
RNA: GGGAGUUCUACAGUCCGACGAUCGCAGGGAGUUCUCCGCGGAUGCAUGGUGGCAGUCUGCUUUGAUGGCAGCAGUUUCUGCUUAGGUGACCUAGAGGUCCUCAGCAGUAUCCUCCACACCUAUUUAUUGAGGUGCACCUGCUGCAACAGAGGAUUGAGCAUCA
B3: ENSG00000124766:be:win_3451|3pUTR|ENSG00000124766|bound_else_gene|NA|bound_elsewhere_windowed (ssRNA)
RNA: GGGAGUUCUACAGUCCGACGAUCAGAGGCUUUAAAACUGGUGCAAUUACAGCAAAAAGGGAUUCUGUAGCUUUAACUUGUAAACCACAUCUUUUUUGCACUUUUUUUAUAAGCAAAAACGUGCCGUUUAAACCACUGGAUCUACAACAGAGGAUUGAGCAUCA
B4: chr1:233671823:233671924:+|3pUTR|ENSG00000135750|msi1|total|mutant (ssRNA)
RNA: GGGAGUUCUACAGUCCGACGAUCUGCUGCUGUGGUCCGAAGCAGAUUUUAUACUUUUAACUGGAAACUUUGGGGUUUGCAUUCCGAUCAUUCCGCUGAUGGCUAAACCGCAAAAUUUAUAUUCCGAAGCAAAAAAAAAAAGCACAACAGAGGAUUGAGCAUCA
B5: chr15:90998672:90999054:-|three_prime_utr|ENSG00000184056|control|control|control (ssRNA)
RNA: GGGAGUUCUACAGUCCGACGAUCAUAACCAAGUGUCCACCAACUACCUGCUAAGAGCCGGGAGCAUGGAACGUGUUGGGAUUUAGAGAACAUUAUCUGAGAAAAGAGUUCACUUCCUGCUCCCAGGAUAUUUCUCUUUUCUGUCAACAGAGGAUUGAGCAUCA
B6: ENSG00000124225:stop:overlap|stop_codon|ENSG00000124225|stop_codon|NA|stop_codon (ssRNA)
RNA: GGGAGUUCUACAGUCCGACGAUCCCCUAGAGAGCGCAGCCAUCUGGAGCAAAGAGAAGGAUAAACAGAAAGGACACCCUCUCUAGGGUCCCCAGGGGGGCCGGGCUGGGGCUGCGUAGGUGAAAAGGCAGAACACUCCGCGCUCAACAGAGGAUUGAGCAUCA
B7: ENSG00000070961:be:win_5401|3pUTR|ENSG00000070961|bound_else_gene|NA|bound_elsewhere_windowed (ssRNA)
RNA: GGGAGUUCUACAGUCCGACGAUCCUAUAACUGAGAGUGCUGACCAAGCAAAGAAACAUUUAGUUGAUGGUGCUUGAUAUUUUUGGUGGGUGGGGGAAAUCUUUUUCUCACCAUCAAAUCUUUGCAGUAAUCCUCUGCAGGUCUCAACAGAGGAUUGAGCAUCA
B8: chr3:154315110:154315224:-|CDS|ENSG00000174953|unk|total|mutant (ssRNA)
RNA: GGGAGUUCUACAGUCCGACGAUCUCAGAGAACAAACUUGACAUCCAGGAAAAGAAGUUGAUAAAUCAAGAAAAAAAAAUGUUCCGAAUCAGGAACAGAUCAUAUAUUGACCGAGAUUCUGAGUAUCUCUUGCAAGAAAAUGAACAACAGAGGAUUGAGCAUCA
B9: chr6:38153770:38153871:+|3pUTR|ENSG00000156639|msi1|total|mutant (ssRNA)
RNA: GGGAGUUCUACAGUCCGACGAUCGGUGGACAGGAUCAGGAUUCCCUUGAAAGCCCAGGCAGGGUGAGCAGUCCCAGUGGUCCCCGUGCCGCAUCAGAUCCAGGUGGGUGAGGGCAGGAGGCCCCUGCGGAGGCAGCGUGGAUCCAACAGAGGAUUGAGCAUCA
B10: chr19:1925605:1925706:+|3pUTR|ENSG00000227500|msi1|total|mutant (ssRNA)
RNA: GGGAGUUCUACAGUCCGACGAUCUUUGGACACCCCAGGCUGCCACCCCUCCCCACCCGUUCACCCCCAGGAUGCUGUUGCUGCCGGACGCCUGCUGCCCUGGAGCCCUCCCCAGGAUGUGAGCCAGUCCCCUCGCUGGUACGGCAACAGAGGAUUGAGCAUCA
B11: ENSG00000198589:be:win_4201|CDS|ENSG00000198589|bound_else_gene|NA|bound_elsewhere_windowed (ssRNA)
RNA: GGGAGUUCUACAGUCCGACGAUCGAAGCCUCUGUGACAUUUUUGCAGAGGCUAAUUAGCCUUGUGGAUGUGCUUAUAUUUGCAAGUUCUCUUGGCUUUACUGAAAUUGAAGCUGAAAAAAGUAUGUCAUCUGGAGGAAUUUUGCAACAGAGGAUUGAGCAUCA
B12: chr1:6522505:6522606:-|3pUTR|ENSG00000162408|msi1|total|mutant (ssRNA)
RNA: GGGAGUUCUACAGUCCGACGAUCCUGGGAUUACAGGCGUGAGCCACUGCGCCUGGCCUGAAGCUAUUCUUUACAAAAGCUCUCCGUUUUUGUUUGUUUGUUUGUUUUUUUCUUUUGCGACGGACUCUCUGUCGCCAAGGCUGGCAACAGAGGAUUGAGCAUCA
B13: chr2:30159184:30159288:+|3pUTR|ENSG00000119801|unk|total|mutant (ssRNA)
RNA: GGGAGUUCUACAGUCCGACGAUCAAAAUCUGGGCUGUCCGAGUGAAAAAGUGUGUUUUAUGUCAAUUGUGAAAGGAAAAUGUCCGGAGUAUGGUUUUUAAACUUGGGCUUCAUUUUAAACUUUUUUUUUUAAACCCAGUUAUUCAACAGAGGAUUGAGCAUCA
B14: chr19:4361374:4361475:-|3pUTR|ENSG00000141985|msi1|FALSE|unique (ssRNA)
RNA: GGGAGUUCUACAGUCCGACGAUCCAGGACCCCACACUUGGGUGGGGGGGCUUAUCUGGGUGGGUGGGGAUGCCUGUUUACACUAGCGCUGACUCCCAACGGUGACGGCUCCCUUCCCCACUCCAUGGCGCCAGCCUCCUCCCCCAACAGAGGAUUGAGCAUCA
B15: chr17:81557321:81557422:-|3pUTR|ENSG00000182446|msi1|total|mutant (ssRNA)
RNA: GGGAGUUCUACAGUCCGACGAUCAGCAUUUCCCUUACUCUGAAGUUCCGGCAUUCACAUCAUUCAUGUUUUCUUUUGUCUUUCCGCUAAAGGAAAAGCAUUGGCGAUUUGUCUGAUUCUGGUUUUGAGUUACUCUUUGUUCAGCAACAGAGGAUUGAGCAUCA
B16: chr9:101424453:101424812:-|three_prime_utr|ENSG00000136872|control|control|control (ssRNA)
RNA: GGGAGUUCUACAGUCCGACGAUCGCUUGACUUUCCAACACGGAGAAGCAUUGUUUUCUUUGGGCCAAGAAGGUAUCUACCGAUAGUGUCUAUUAGGCAUUUGAAAAUGUGGCAGUAGAGGUCAGUAUGAGGAUUGAGGCUAGACAACAGAGGAUUGAGCAUCA
B17: chr1:36287001:36287112:+|CDS|ENSG00000054118|unk|total|mutant (ssRNA)
RNA: GGGAGUUCUACAGUCCGACGAUCCCCCUCCAGUCUGUGGUGGUGAGGCGGCGGUCACCCCGUCCCCGCCCCGUGCCAAAACCCCGUCCUCCACUUUCCAGCACAUCCCAGAUGGGCUCAACUCUGCCGAGUGGUGCCGGGUAUCAACAGAGGAUUGAGCAUCA
B18: chr2:216675988:216676089:-|3pUTR|ENSG00000115461|msi1|FALSE|unique (ssRNA)
RNA: GGGAGUUCUACAGUCCGACGAUCACUAAAAUGCAUUCCAUUCCUCUGAAAGCAAAACAAAUUCAUAAUUGAGUGAUAUUAAAUAGAGAGGUUUUCGGAAGCAGAUCUGUGAAUAUGAAAUACAUGUGCAUAUUUCAUUCCCCACAACAGAGGAUUGAGCAUCA
B19: chr2:70149884:70150355:-|three_prime_utr|ENSG00000115998|control|control|control (ssRNA)
RNA: GGGAGUUCUACAGUCCGACGAUCAGAUAAUAAUCUUUUGCUGCUUAAUUUGCACAUCCCCACCCCUUGACAACUUUAAAUGCUAGUUAGGCACUUAGAUGGCCCUGUUCCUUGGUAAACUGCUCUUAGCUAAGAUGCAAAUUCCAACAGAGGAUUGAGCAUCA
B20: chr19:53353201:53353302:+|CDS|ENSG00000213799|msi1|total|mutant (ssRNA)
RNA: GGGAGUUCUACAGUCCGACGAUCCACAAUUCAGCCCUUGAAAUUCAUAAGGCAAUUCAUACUGGAGAAAAACCUUACAAGUGCCGUGAAUGUGGCAAGGUUUUUAACCGAAAAGCAAACCUUUCACGUCAUCACCGACUUCAUCAACAGAGGAUUGAGCAUCA
B21: chr4:16162636:16162738:-|3pUTR|ENSG00000169762|unk|total|mutant (ssRNA)
RNA: GGGAGUUCUACAGUCCGACGAUCACCUUAAAUAAGACAUGAUGAACCGCCGCAUUUUGCCGGGUUAAAAAAAAAUGCUAAACCCGUUUAUUUAUUAAAAAAAUAAUUAAUGAAGGCUAUGCAUUACUGGGAAAAAUCCUUCAUCAACAGAGGAUUGAGCAUCA
B22: chr12:1788447:1788559:+|3pUTR|ENSG00000006831|unk|FALSE|bound_elsewhere (ssRNA)
RNA: GGGAGUUCUACAGUCCGACGAUCUUUCUUUUUUGGCCCUAGGCUGGUUGGGACCUCUACAGCUUCAUUCUUUCACCAUUAAAUAGUGGCCUUUUUCAGUAUUUUCCCUCUUCCCCUUUAUAAAUUAUGCUAAAGCCACAAAGCCAACAGAGGAUUGAGCAUCA

biological target: T1, UNK ZnF1-6 (called full-length); assay: nsRBNS (natural sequence RNA bind-n-seq); RBNS binding buffer (assumed for nsRBNS): 25 mM Tris pH 7.5, 150 mM KCl, 3 mM MgCl2, 0.01% Triton X-100, 500 ug/ml BSA, 20 U/ml SUPERase-In, 4 C; UNK is unkempt and MSI1 is Musashi-1; names of the RNAs are library labels; protein concentration not given here; high values mean tight binding

Binder	binding signal
B1	1.36 enrichment R
B2	0.802 enrichment R
B3	0.648 enrichment R
B4	0.403 enrichment R
B5	0.529 enrichment R
B6	0.377 enrichment R
B7	0.749 enrichment R
B8	0.361 enrichment R
B9	0.635 enrichment R
B10	1.35 enrichment R
B11	0.355 enrichment R
B12	0.629 enrichment R
B13	1.06 enrichment R
B14	0.768 enrichment R
B15	0.377 enrichment R
B16	0.642 enrichment R
B17	0.756 enrichment R
B18	0.383 enrichment R
B19	0.502 enrichment R
B20	0.237 enrichment R
B21	0.467 enrichment R
B22	1.29 enrichment R
